# Test results published in the supplement of paper PMC3334620.
# In all, about 33,000 sequences were measured (“E-score (-0.5 to 0.5)”: median about -0.021, highest 2% from about 0.32 on). The list shows a part of the results.
# Target: T1, Zap1 (UniProt P47043)
# T1 sequence: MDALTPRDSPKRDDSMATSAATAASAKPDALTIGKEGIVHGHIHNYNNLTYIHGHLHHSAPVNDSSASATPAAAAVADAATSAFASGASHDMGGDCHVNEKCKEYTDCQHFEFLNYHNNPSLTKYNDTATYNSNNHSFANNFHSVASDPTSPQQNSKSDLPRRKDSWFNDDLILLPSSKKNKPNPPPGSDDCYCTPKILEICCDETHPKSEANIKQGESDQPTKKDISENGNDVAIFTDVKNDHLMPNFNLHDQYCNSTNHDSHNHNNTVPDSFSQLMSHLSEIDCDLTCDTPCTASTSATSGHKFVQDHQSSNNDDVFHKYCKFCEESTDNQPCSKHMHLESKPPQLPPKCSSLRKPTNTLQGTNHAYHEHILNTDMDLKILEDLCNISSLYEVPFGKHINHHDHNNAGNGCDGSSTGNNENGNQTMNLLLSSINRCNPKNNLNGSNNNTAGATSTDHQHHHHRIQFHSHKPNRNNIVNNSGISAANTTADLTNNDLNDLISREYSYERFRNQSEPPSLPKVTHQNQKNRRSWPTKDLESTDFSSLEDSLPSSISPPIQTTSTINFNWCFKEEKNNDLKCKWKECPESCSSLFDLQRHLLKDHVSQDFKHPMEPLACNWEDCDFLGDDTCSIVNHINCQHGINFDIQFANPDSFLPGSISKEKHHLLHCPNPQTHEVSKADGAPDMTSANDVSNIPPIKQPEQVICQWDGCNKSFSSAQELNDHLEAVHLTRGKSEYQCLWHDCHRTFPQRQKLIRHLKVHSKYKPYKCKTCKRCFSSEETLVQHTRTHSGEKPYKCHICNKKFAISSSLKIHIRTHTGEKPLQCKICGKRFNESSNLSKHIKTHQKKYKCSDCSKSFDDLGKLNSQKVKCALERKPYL
# Assay: PBM E-score (8-mer binding enrichment) (E-score (-0.5 to 0.5)); higher = stronger / more preferred TF binding; most listed sequences are background and not binding sites
# Conditions: protein concentration: 200 nM; construct: GST-full length
# Outline: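 For each ungapped eight-base word taken together with its reverse complement, the Universal PBM Analysis Suite assigned an E-score. Binding data came from GST-tagged yeast transcription factors, applied at about 100-200 nM, on universal all-10-mer Agilent arrays made double-stranded by primer extension. Fluorescent anti-GST marked bound protein, and scans were normalised with masliner.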
row,Sequence,PBM E-score
1,CCAGCCCG,-0.165
2,TCTTTCCA,-0.0633
3,ATAACAAG,0.142
4,AAAGGTAA,0.361
5,TATGATCA,0.146
6,GATCCGAA,0.014
7,AGAGGTAA,0.298
8,ATGGAACA,-0.031
9,AGGGAAAC,-0.178
10,CCCTTAGC,0.0213
11,CGTTAAAC,0.21
12,CACTAAAA,0.121
13,ATTACGGA,0.126
14,GGAAAAGA,-0.0998
15,AGGATCTA,-0.358
16,GGCCGCAC,-0.106
17,GATGTAAA,-0.0511
18,TCGTAACA,0.0696
19,AATCCCGT,0.0467
20,GCCGCGCA,-0.332
21,ACTCAGGA,0.12
22,GCGGTAAC,0.32
23,AAGATCGG,-0.142
24,AAAACGTG,-0.101
25,GGCCGAAA,0.0877

row,Sequence,PBM E-score
1,CTCCTTGC,-0.154
2,AACGAAGA,0.047
3,CCTATGGC,-0.126
4,AAACGGTC,0.097
5,AGAATGGG,0.0885
6,CGTGGACA,0.0459
7,AACCGTTG,0.25
8,CGCATGCG,-0.0521
9,ACGGTCGA,-0.0848
10,ACAGGGCC,0.0475
11,CTACAGCC,-0.139
12,CTAGGAAC,0.0514
13,AAAACTGC,-0.047
14,AAAGCCGT,-0.0578
15,CTGAATGA,0.0581
16,ATCTTTTA,0.09
17,GCACGGGC,-0.249
18,ACGCGTCT,-0.267
19,GACGTCAA,0.02
20,GCAAGTGC,-0.209
21,ATAGAAGG,0.102
22,AGCCCCTG,-0.231
23,AACCCTAA,0.452
24,AGTGCCCG,-0.203
25,CTGCGCTC,-0.236

row,Sequence,PBM E-score
1,AACGTAAA,0.199
2,ATGATGTG,-0.0157
3,ATAGGTCC,0.116
4,CGTCAGAC,-0.11
5,AGATTTTC,-0.0514
6,CGTCCGAA,-0.0179
7,GTCTTTTA,-0.00522
8,AACGGCGC,-0.21
9,CACGGCAG,-0.00889
10,CACGAGAA,-0.0171
11,GACCTAGC,-0.0032
12,GCGGTTAA,0.356
13,CTCGTGAA,0.00434
14,CCATCGGA,-0.174
15,GCTTTTAC,-0.0332
16,GTGAACGA,-0.00586
17,AGAGGCCG,-0.144
18,ATATAAAA,0.227
19,CCGGCACA,-0.107
20,ACTTATCT,0.0441
21,ACGGTTTA,-0.00711
22,ATTGATGC,0.0558
23,GCATAACA,0.0518
24,CGATCGAG,-0.0245
25,GCATGGAC,-0.108

row,Sequence,PBM E-score
1,CTGAATCA,0.0173
2,CAGACCGG,-0.116
3,CGAGACAC,-0.0303
4,GTTGTTTA,0.164
5,AGGCCAAC,-0.0893
6,ACTCTAGA,0.0328
7,ATCTTGGA,0.00915
8,ACGAAGTC,-0.206
9,ACACTCAT,-0.0643
10,GCGGCCGC,0.0803
11,CCCTAATC,0.0726
12,ACGAAAGG,0.0805
13,CATGCCCA,-0.296
14,ATAAACGA,0.201
15,CAACGACG,-0.19
16,AGCGTGTG,-0.0655
17,ACCAGTCG,0.0704
18,AATTTACG,0.113
19,AAGTCGGC,-0.23
20,CAGAGAAA,0.0455
21,ATCGTGTC,-0.118
22,GCTCACAC,0.016
23,GGTACGAA,0.201
24,AGGCGAAT,-0.322
25,GAGATGCA,-0.213

row,Sequence,PBM E-score
1,ATGCTGGG,-0.126
2,ATACATGG,-0.131
3,CAATCCCA,-0.182
4,CGCTTGAA,0.143
5,ATCAGAGG,-0.0826
6,ACGTGAGG,-0.018
7,ATTAATGA,0.138
8,AAACAATC,0.145
9,AGGGGCGC,-0.101
10,AAGGAGCC,-0.294
11,AAACTTTC,0.0388
12,ATCTTTAA,0.206
13,ACTTATAT,0.26
14,ACAGGCGT,-0.324
15,AGGAGGAG,-0.279
16,CTTTGATA,0.106
17,CGGTGTTC,0.0412
18,CAAGATTA,-0.00834
19,CTTGTCTC,-0.00369
20,CCATGCTC,-0.174
21,CTCTGTGC,-0.164
22,CAAAAGAA,0.111
23,AAAGCCCC,-0.2
24,CAAAGCAG,0.00173
25,CTGGTTTA,-0.0412

row,Sequence,PBM E-score
1,CACCTAAC,-0.0198
2,TCTCGACA,-0.117
3,AGTACACA,0.0705
4,GCTTTCGA,-0.0324
5,CAACTGTA,0.0697
6,CCACTTCG,-0.0993
7,ATTGTTTC,0.195
8,CCCGAGGA,-0.141
9,ATGTCAGG,-0.0549
10,TCCCGTAA,0.184
11,CGACGCAG,-0.187
12,AGAGAAAG,-0.0958
13,GCTGAAGA,-0.0693
14,AACAGCTG,0.13
15,AACTGCAC,0.131
16,CAATCCGG,-0.0977
17,ATTGCTCA,-0.0105
18,CAGCTACC,-0.0054
19,ATTTGCTC,-0.169
20,AGATTGTG,0.0673
21,AAGACAAA,0.012
22,CAGCGGAC,0.0227
23,ATTACAAC,0.0539
24,ATACCTCA,0.223
25,TAAAGGTA,0.34

row,Sequence,PBM E-score
1,CTTTGATC,0.00855
2,CACTAAAG,0.159
3,CTGGATTC,-0.00494
4,ACTTCCTC,-0.0802
5,CAGCCCTG,-0.244
6,CAAACTAC,0.0989
7,AGCTGCCA,-0.301
8,GCTCCCAC,-0.0727
9,CGTTCCGC,0.0318
10,CGCAACAG,-0.0258
11,CCCACTTA,-0.0455
12,CCAGATCG,-0.119
13,ACATAGAA,-0.0681
14,ATTTTCAA,0.135
15,ATGTCGTG,-0.0761
16,AGTTATAA,0.193
17,CTAATTCA,-0.0193
18,CGTACAAG,-0.0243
19,CGCATGTA,-0.0451
20,AAGCTCGA,-0.0303
21,ACTGTTAC,-0.0312
22,CAGTGAAA,-0.00327
23,ATGTCTGA,-0.232
24,CATATTAA,0.277
25,ACCAAGCA,0.208

row,Sequence,PBM E-score
1,ACAGCCGG,0.0917
2,ACAGCACC,-0.146
3,ACCGCCTA,-5e-05
4,AGTTATGC,0.0469
5,CCATTTTC,0.119
6,GGTTTGGA,0.135
7,TAAGCACA,0.0783
8,GTGAGGGA,-0.0834
9,CGGGTCCC,-0.116
10,AATTCTGA,0.0239
11,GTCCTCAA,0.0163
12,ATGTGCTC,-0.0103
13,ATCCCATG,-0.0549
14,CAACGTCG,-0.0764
15,GACGCGGA,-0.0173
16,ATACACTC,0.0552
17,CTCAAGGC,0.0438
18,ATCCAGCA,-0.107
19,CCGCATAC,0.0877
20,GGTCAGCA,0.14
21,GCGTATAC,-0.00708
22,ATGGAGTA,-0.0173
23,CGTTGTAC,0.0582
24,AGGAGAAC,-0.0223
25,GGCAGAAA,0.181

row,Sequence,PBM E-score
1,CGCTAGTC,-0.294
2,GTCCTCAC,-0.0399
3,AAGCAATA,-0.141
4,ATAGGCCC,-0.00479
5,AACGGCTA,-0.0947
6,CTCGTCTA,-0.145
7,AAGTACAC,0.0551
8,CAAAAGGA,0.00165
9,CGCACATA,-0.261
10,CCAGGCCG,-0.0809
11,AGAGAGCT,-0.212
12,AGTTGGGG,-0.0889
13,ATTCAAGA,-0.105
14,GACGAACA,-0.026
15,ATGGGATA,-0.156
16,GAAAACCA,0.263
17,ATCGCATA,0.0205
18,TGACTCAA,-0.108
19,ATCCAAAT,-0.0156
